Test results taken from the supplement of paper PMC10126150.
Sequences with one replicate were seen in a single cluster, so their values are uncertain.

Tested on: ATP
Assay: switch fluorescence ratio, 500 uM ATP over buffer (Cy3 cluster intensity, sum of 5 cycles each) (fold (ratio)); higher = stronger signal-on switching upon ATP binding; sequences stand for … in TCGTCGGCAGCGTCAGATGTGTATAAGAGACAGTTTTTTTTTTTTTTTTTTTTTTTTT…TC
Conditions: aptamer strand: ATP DNA aptamer (quencher-CACCTGGGGGAGTATTGCGGAGGAAGG + anchor), 100 nM annealed; ATP concentration: 500 uM; one replicate
In short: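 Five buffer/ATP imaging cycles were run on Cy3-labelled switching-strand clusters on a modified Illumina MiSeq flow-cell, with NaOH stripping and re-annealing between cycles. In each cycle, clusters annealed to 100 nM quencher-labelled ATP aptamer were imaged in selection buffer, then after 15 min with 500 uM ATP at 22 °C. Per cluster, the fluorescence ratio is summed target-cycle over summed buffer-cycle Cy3 intensity, averaged per switch-domain sequence. Only clusters within 100-1000 RFU were kept.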
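Also: ATP exposure 15 min at 22 °C before imaging.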

Q: Which switch fluorescence ratio does the source give for GGCAATTACT here?
A: 3.48

Q: How did the switch fluorescence ratio turn out when GGCACCACTA was run?
A: 1.12

Q: How did the switch fluorescence ratio turn out when GGCACGGGTT was run?
A: 1.01

Q: For GGCACTATTA, which switch fluorescence ratio is on record?
A: 1.02

Q: For GGCACTTCTT, which switch fluorescence ratio is on record?
A: 0.962

Q: With GGCAGACTTT as the sequence, how does the switch fluorescence ratio read?
A: 1.08

Q: How did the switch fluorescence ratio turn out when GGCAGCAACG was run?
A: 1.09

Q: How did the switch fluorescence ratio turn out when GGCAGCATTG was run?
A: 1.02

Q: For GGCAGGGCCG, which switch fluorescence ratio is on record?
A: 0.988

Q: How did the switch fluorescence ratio turn out when GGCAGGGGAG was run?
A: 1.02

Q: GGCAGTACGC was tested. Which switch fluorescence ratio did it give?
A: 1.17

Q: How did the switch fluorescence ratio turn out when GGCAGTCGCG was run?
A: 0.975

Q: Which switch fluorescence ratio does the source give for GGCAGTGGAA here?
A: 0.944

Q: GGCAGTTGGA was tested. Which switch fluorescence ratio did it give?
A: 0.97

Q: For GGCATCAGCG, which switch fluorescence ratio is on record?
A: 1.01

Q: Which switch fluorescence ratio does the source give for GGCATCGACT here?
A: 1.06

Q: For GGCATCTTCA, which switch fluorescence ratio is on record?
A: 1

Q: How did the switch fluorescence ratio turn out when GGCATGCAGT was run?
A: 1

Q: Which switch fluorescence ratio does the source give for GGCATGCTCG here?
A: 1.01

Q: For GGCATTGGTA, which switch fluorescence ratio is on record?
A: 0.984

Q: Which switch fluorescence ratio does the source give for GGCATTTGAT here?
A: 1.02

Q: How did the switch fluorescence ratio turn out when GGCCAAGATG was run?
A: 0.97

Q: How did the switch fluorescence ratio turn out when GGCCAAGCGC was run?
A: 0.984

Q: With GGCCAATGAG as the sequence, how does the switch fluorescence ratio read?
A: 0.987

Q: GGCCACGATT was tested. Which switch fluorescence ratio did it give?
A: 0.951

Q: With GGCCACTAAG as the sequence, how does the switch fluorescence ratio read?
A: 1.05

Q: For GGCCAGTCAC, which switch fluorescence ratio is on record?
A: 0.984

Q: Which switch fluorescence ratio does the source give for GGCCATAAGG here?
A: 1.02

Q: GGCCATCACA was tested. Which switch fluorescence ratio did it give?
A: 0.971

Q: How did the switch fluorescence ratio turn out when GGCCCAAAGA was run?
A: 1.1

Q: GGCCCAGGGT was tested. Which switch fluorescence ratio did it give?
A: 1.65

Q: GGCCCGAATT was tested. Which switch fluorescence ratio did it give?
A: 1.03

Q: For GGCCCTAGTG, which switch fluorescence ratio is on record?
A: 1.08

Q: GGCCCTGTAC was tested. Which switch fluorescence ratio did it give?
A: 1.16

Q: GGCCGAAAG was tested. Which switch fluorescence ratio did it give?
A: 1

Q: For GGCCGAGGGA, which switch fluorescence ratio is on record?
A: 1

Q: How did the switch fluorescence ratio turn out when GGCCGCGGAG was run?
A: 1.02

Q: For GGCCGCGTGC, which switch fluorescence ratio is on record?
A: 1.21

Q: GGCCGGACCA was tested. Which switch fluorescence ratio did it give?
A: 1.09

Q: How did the switch fluorescence ratio turn out when GGCCGGGATT was run?
A: 1.04

Q: With GGCCGGGGTC as the sequence, how does the switch fluorescence ratio read?
A: 1.07

Q: Which switch fluorescence ratio does the source give for GGCCTAGTAG here?
A: 1

Q: With GGCCTCTCGC as the sequence, how does the switch fluorescence ratio read?
A: 1.09

Q: How did the switch fluorescence ratio turn out when GGCCTTTCAG was run?
A: 0.999

Q: Which switch fluorescence ratio does the source give for GGCGATACGG here?
A: 1.59

Q: With GGCGATATGC as the sequence, how does the switch fluorescence ratio read?
A: 1.01

Q: With GGCGATCGT as the sequence, how does the switch fluorescence ratio read?
A: 0.981

Q: GGCGATGAAC was tested. Which switch fluorescence ratio did it give?
A: 1.05

Q: How did the switch fluorescence ratio turn out when GGCGCAAGGC was run?
A: 4.51

Q: For GGCGCAGTAA, which switch fluorescence ratio is on record?
A: 1.22

Q: For GGCGCGCCAA, which switch fluorescence ratio is on record?
A: 1.03

Q: How did the switch fluorescence ratio turn out when GGCGCGGCCG was run?
A: 0.991

Q: With GGCGCGGGCT as the sequence, how does the switch fluorescence ratio read?
A: 0.933

Q: GGCGGAAAGG was tested. Which switch fluorescence ratio did it give?
A: 1.02

Q: Which switch fluorescence ratio does the source give for GGCGGACGTG here?
A: 0.961

Q: For GGCGGACTTG, which switch fluorescence ratio is on record?
A: 0.99

Q: How did the switch fluorescence ratio turn out when GGCGGGCATA was run?
A: 1.01

Q: How did the switch fluorescence ratio turn out when GGCGGGTTCG was run?
A: 0.984

Q: For GGCGGGTTTG, which switch fluorescence ratio is on record?
A: 1.06

Q: For GGCGGTAGC, which switch fluorescence ratio is on record?
A: 0.966

Q: With GGCGGTCGTC as the sequence, how does the switch fluorescence ratio read?
A: 0.978

Q: How did the switch fluorescence ratio turn out when GGCGTAGGGT was run?
A: 1.03

Q: Which switch fluorescence ratio does the source give for GGCGTAGTTT here?
A: 1.02

Q: For GGCGTCAGCT, which switch fluorescence ratio is on record?
A: 0.986

Q: For GGCGTCCGGG, which switch fluorescence ratio is on record?
A: 0.993

Q: GGCGTCCTT was tested. Which switch fluorescence ratio did it give?
A: 0.982

Q: Which switch fluorescence ratio does the source give for GGCGTGGCGC here?
A: 0.983

Q: For GGCGTGGCTT, which switch fluorescence ratio is on record?
A: 0.987

Q: GGCGTTTGTG was tested. Which switch fluorescence ratio did it give?
A: 0.983

Q: With GGCTAAGGAC as the sequence, how does the switch fluorescence ratio read?
A: 1.03

Q: Which switch fluorescence ratio does the source give for GGCTAAGTAG here?
A: 1.05

Q: With GGCTAATTAG as the sequence, how does the switch fluorescence ratio read?
A: 1.14

Q: GGCTACGGTT was tested. Which switch fluorescence ratio did it give?
A: 0.972

Q: GGCTCACATC was tested. Which switch fluorescence ratio did it give?
A: 0.995

Q: With GGCTCCATAC as the sequence, how does the switch fluorescence ratio read?
A: 2.21

Q: With GGCTCCTATA as the sequence, how does the switch fluorescence ratio read?
A: 1.04

Q: For GGCTCCTCAT, which switch fluorescence ratio is on record?
A: 1.23

Q: How did the switch fluorescence ratio turn out when GGCTCGGCTG was run?
A: 0.985

Q: With GGCTCGTGCA as the sequence, how does the switch fluorescence ratio read?
A: 1.01

Q: How did the switch fluorescence ratio turn out when GGCTGAATCG was run?
A: 0.968

Q: Which switch fluorescence ratio does the source give for GGCTGCAAGC here?
A: 1.05

Q: For GGCTGCTTCC, which switch fluorescence ratio is on record?
A: 1.58

Q: GGCTGGTACC was tested. Which switch fluorescence ratio did it give?
A: 0.997

Q: With GGCTGGTCTT as the sequence, how does the switch fluorescence ratio read?
A: 1.01

Q: GGCTGGTGTC was tested. Which switch fluorescence ratio did it give?
A: 1.06
